The values that follow come from PubChem BioAssay AID2202238 (Ras Initiative Chemistry Research Team, Frederick National …, 2025).

Structures are written as SMILES. Screen size: about 2,200 compounds; fewer than 10 were called active. Some of the results follow. The source made no clear call on entries shown without one.

The assay concerns the target GTPase KRas (Homo sapiens) (UniProt P01116). The assay can be described thus: Covalent labelling of cysteine mutants by fragments, read by mass spectrometry (AID 2202238). The arrangement: protein at 5 µM with 500 µM competing thiol for 1.5 h. To be noted: KRAS G12D cysteine mutants, disulfide tethering, MALDI-TOF labeling; stronger effect = higher value; H27C mutant labeling; fragment at 500 µM.
Chain of UniProt P01116 (P01116 whole entry, looked up, the tested form may be a part): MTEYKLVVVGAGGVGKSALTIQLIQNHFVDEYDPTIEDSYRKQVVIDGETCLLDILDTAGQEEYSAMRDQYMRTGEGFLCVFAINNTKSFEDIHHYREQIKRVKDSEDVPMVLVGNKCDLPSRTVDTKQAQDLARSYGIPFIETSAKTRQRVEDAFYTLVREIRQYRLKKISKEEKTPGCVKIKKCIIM
Regarding `Cc1occ(C(F)(F)F)c1CC(=O)NCCS`, the percent labeling came to 23.5%.

The compound `O=C1CCCCC2(C(=O)NCCS)CCCN12` (centres undefined) registered a percent labeling of 31.6%.

For `CN(Cc1cnn(-c2cccc(Cl)c2)c1)C(=O)CCS`, the percent labeling amounted to 38.6%.

With `Cc1cc(CC2CCCC2NC(=O)CCS)n(C)n1` (centres undefined), the percent labeling came to 37.7%.

For the compound `O=C(NCCS)c1cc(Br)c2occc2c1`, the percent labeling came out at 35.8%.

For the compound `O=C(NCCS)c1ncsc1C(F)(F)F`, the percent labeling is 47.2%.

Turning to `COc1ccc(Cl)cc1C(=O)N1CCC(C(=O)NCCS)CC1`, the percent labeling is 39.3%.

For the compound `Cc1ccc(-c2nc(C(=O)NCCS)cs2)o1`, the percent labeling was determined as 34.4%.

Turning to `Cc1ccc(Br)c2[nH]c(C(=O)NCCS)cc12`, the percent labeling came out at 23.2%.

Turning to `O=C(NCCS)c1c[nH]c2ncc(Br)cc12`, the percent labeling came out at 46.9%.

`O=C(CCc1ncc(-c2ccc(F)cc2)o1)NCCS` yielded a percent labeling of 22%.

The compound `COc1cc(CN(C(=O)CCS)C2CC2)ccc1O` gave a percent labeling of 43%.

`CC1(N2CCCC2)CCC(NC(=O)CCS)CC1` (centres undefined): the percent labeling came out at 47.1%.

For `O=C(NCCS)c1cccc(NC(=O)C2Cc3ccccc3O2)c1` (centres undefined), the percent labeling was found to be 15.4%.

`O=C(NCCS)c1cccc(N2CCOCC2=O)c1` had a percent labeling of 40.7%.

Compound `O=C(CCS)Nc1cccc(COc2ccc(F)cc2)c1` gave a percent labeling of 30.9%.

Compound `CCN(CC(=O)NCCS)Cc1ccc(Cl)cc1` gave a percent labeling of 32.6%.

Compound `O=C(CCS)N(Cc1ccc2c(c1)OCO2)C1CCCC1` came in with a percent labeling of 36.5%.

`O=C(CCS)N1CCN(Cc2cc(=O)n3ccccc3n2)CC1` displayed a percent labeling of 41%.

Compound `CN1C(=O)C[C@@H](C(=O)NCCS)[C@@H]1c1ccc(F)cc1` returned a percent labeling of 39.8%.

Consider `CN(C)c1nc[nH]c(=O)c1NC(=O)CCS`, for which the percent labeling came to 30.4%.

The compound `Cn1cc(C(O)C2CCN(C(=O)CCS)CC2)c(=O)n(C)c1=O` (centres undefined) returned a percent labeling of 37.3%.

Turning to `Cc1nn(C)cc1CN(C(=O)CCS)C1CC1`, the percent labeling is 34.2%.

In turn, `O=C(Cn1cccnc1=O)Nc1ccc(F)c(NC(=O)CCS)c1` came in with a percent labeling of 28%.

Regarding `O=C(CCS)NCc1ccc(-n2ccc(C3CC3)n2)cc1`, the percent labeling is 35.8%.

`Cc1ccc(-c2noc3nc(C)cc(C(=O)NCCS)c23)cc1` gave a percent labeling of 29.1%.

`CN(CC(=O)NCCS)Cc1cccc(C#N)c1` showed a percent labeling of 37%.

`O=C(NCCS)c1ccccc1Cn1ccnn1` showed a percent labeling of 33%.

Take `CN(C(=O)CCS)C1CCN(CC(F)(F)F)CC1`: the percent labeling is 39.5%.

For `COc1cc2[nH]c(C(=O)NCCS)cc2c(OC)c1OC`, the percent labeling was 37.9%.

`Cn1nc(C(F)F)cc1CNC(=O)CCS`: the percent labeling was 33.7%.

As for `O=C(CC1(CC(=O)Nc2nccs2)CCCCC1)NCCS`, the percent labeling was 35.2%.

`Cc1cc(=O)oc2cc(NC(=O)CCS)ccc12` had a percent labeling of 26.4%.

Turning to `O=C(NCCS)C1CCN(c2cnccn2)CC1`, the percent labeling amounted to 39.5%.

Compound `O=C(CCn1nc(-c2cccs2)oc1=O)NCCS` had a percent labeling of 32.1%.

For the compound `Cn1cc(C2=CCCN(C(=O)CCS)C2)cn1`, the percent labeling was determined as 19.4%.

For the compound `O=C(CCS)Nc1nc(C2CC2)c(Cc2ccc(F)cc2)s1`, the percent labeling worked out at 20.9%.

The compound `Cc1nc2ccccc2c(=O)n1-c1ccc(C(=O)NCCS)cc1` yielded a percent labeling of 32%.

Compound `O=C(Cc1cc2ccccc2c(=O)[nH]1)NCCS` came in with a percent labeling of 25.1%.

`CN1CCN(c2cccc(C(=O)NCCS)n2)CC1=O`: the percent labeling was found to be 31%.

On to `Cn1nc(C(F)(F)F)c2cc(C(=O)NCCS)cnc21`, for which the percent labeling came to 43.3%.

With `O=C(NCCS)C1COCCN1CC1CCC1` (centres undefined), the percent labeling amounted to 31.9%.

Consider `O=C(NCCS)c1cc(-c2ccc3ccccc3c2)n[nH]1`, for which the percent labeling turned out to be 18.5%.

Compound `Cc1ccc(C)c(CN(C(=O)CCS)c2ccc3c(c2)CCC(=O)N3)c1` yielded a percent labeling of 31.7%.

As to `O=C(NCCS)c1cnn(-c2cccc(Cl)c2)n1`, the percent labeling came out at 36.9%.

With `CCCc1nc2ccccc2n1CCC(=O)NCCS`, the percent labeling came out at 34.3%.

On to `CC(C)c1cc(C(=O)NCCS)nn1-c1ccccc1`, for which the percent labeling came to 22.3%.

`O=C(NCCS)c1cccc(C(F)(F)F)c1` displayed a percent labeling of 31.7%.

In turn, `O=C(CCS)N1CCC(Sc2cccc(Cl)c2)C1` (centres undefined) displayed a percent labeling of 41.3%.

In the case of `O=C(NCCS)c1ccccc1-n1cc(Br)cn1`, the percent labeling came to 39.1%.

In turn, `COc1cccc(CCN(CC(F)F)C(=O)CCS)c1` yielded a percent labeling of 39.4%.

As for `CCn1cc(-c2[nH]ncc2C(=O)NCCS)cn1`, the percent labeling was found to be 45.4%.

As to `CN(CCNC(=O)CCS)c1ccccn1`, the percent labeling came out at 28.2%.

Turning to `O=C(CCS)Nc1cc2c3c(c1)CCC(=O)N3CCC2`, the percent labeling stood at 41.2%.

For the compound `Cc1nn(-c2ccccc2)c2sc(C(=O)NCCS)cc12`, the percent labeling was 33.9%.

`O=C(NCCS)C1(C(F)(F)F)CCN(Cc2ccccc2)C1` (centres undefined) had a percent labeling of 31.6%.

Compound `Cc1cccc(C(CC(=O)NCCS)NC(N)=O)c1` (centres undefined) had a percent labeling of 32.7%.

With `O=C(NCCS)c1ccc2noc(-c3ccc(F)cc3)c2c1`, the percent labeling stood at 23.3%.

In the case of `Cc1nc2ccccc2c(C)c1CC(=O)NCCS`, the percent labeling worked out at 40.4%.

For `Cn1cc(C(=O)NCCS)c2ccccc2c1=O`, the percent labeling turned out to be 45.1%.

As to `O=C(CCS)NCCn1cncc1-c1ccccc1`, the percent labeling stood at 35.5%.

On to `CN(C)CCNS(=O)(=O)c1cccc(NC(=O)CCS)c1`, for which the percent labeling is 60%.

As for `Cc1ccn2c(CN3CCN(C(=O)CCS)CC3)c(C)nc2c1`, the percent labeling worked out at 36.1%.

Compound `O=C(CCS)N1CCN(Cc2noc(C3CC3)n2)CC1` gave a percent labeling of 34.8%.

`O=C(NCCS)C1(C2CCCCO2)CCCO1` (centres undefined) had a percent labeling of 28.9%.

As for `Cc1ccc(-n2ccc(CNC(=O)CCS)n2)cc1`, the percent labeling came to 30.3%.

`COc1ccccc1C1(C)CC1C(=O)NCCS` (centres undefined) had a percent labeling of 37.4%.

Compound `O=C(CCS)N1CCc2cc(Br)c(Cl)cc21` had a percent labeling of 16.4%.

Take `O=C(CCS)NCCN1C(=O)Cc2ccccc21`: the percent labeling turned out to be 21.1%.
